Test results: the supplement of paper PMC7826260
This is one part of the list. Cleavage of a single-stranded DNA pool by Rep nickase domains was read by sequencing at 3 µM enzyme and 37 °C for 1 h; the strands have 90 letters, of which the middle is given. A value is the log2 ratio of uncut reads to the pool without enzyme; the lower, the more was cut; hits are not called. Reads are scaled to the total; where an enzyme cuts many sequences, the uncut ones exceed 0.

Assays:
Test in all cases: uncleaved DNA left, log2 of reads against the no-enzyme library (log2 ratio); higher = less cleavage (more negative = more Rep cleavage of the k-mer); sequences stand for … in CTCGTCCG…ACCGGAGA
[1] = tested on: T1, Rep nickase domain of Muscovy duck circovirus
T1 sequence (residues 1-111, tag not shown): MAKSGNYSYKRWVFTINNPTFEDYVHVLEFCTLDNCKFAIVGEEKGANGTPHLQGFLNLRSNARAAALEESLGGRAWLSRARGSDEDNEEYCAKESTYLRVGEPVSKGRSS
Description: (§1)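 A pool of 90-nt single-stranded DNAs with seven random bases just before the constant AC of the nick site (name = the seven bases) was cut by 3 µM recombinant His6-SUMO-tagged Rep nickase domain (300 nM DNA, 50 mM HEPES pH 8.0, 50 mM NaCl, 1 mM MnCl2, 1 h, 37 °C, three replicates). Uncut DNA was amplified and sequenced.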

[2] = tested on: T2, Rep nickase domain of banana bunchy top virus
T2 sequence (residues 1-94, tag not shown): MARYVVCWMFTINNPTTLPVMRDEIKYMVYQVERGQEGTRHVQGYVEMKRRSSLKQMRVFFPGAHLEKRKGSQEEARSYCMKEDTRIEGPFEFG
Description: as §1

[3] = tested on: T3, Rep nickase domain of cabbage leaf curl virus
T3 sequence (residues 1-116, tag not shown): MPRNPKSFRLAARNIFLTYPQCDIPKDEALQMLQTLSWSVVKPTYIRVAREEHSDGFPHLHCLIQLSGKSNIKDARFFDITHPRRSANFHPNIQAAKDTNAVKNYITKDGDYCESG
Description: as §1

[4] = tested on: T4, Rep nickase domain of chickpea chlorotic dwarf virus
T4 sequence (residues 1-124, tag not shown): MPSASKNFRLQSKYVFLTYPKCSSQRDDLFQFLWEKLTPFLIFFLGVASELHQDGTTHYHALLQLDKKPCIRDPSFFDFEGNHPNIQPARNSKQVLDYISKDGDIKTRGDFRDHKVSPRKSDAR
Description: as §1

[5] = tested on: T5, Rep nickase domain of faba bean necrotic yellows virus
T5 sequence (residues 1-98, tag not shown): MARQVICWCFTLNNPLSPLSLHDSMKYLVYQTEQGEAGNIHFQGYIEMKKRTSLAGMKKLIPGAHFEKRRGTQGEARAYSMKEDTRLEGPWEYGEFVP
Description: as §1

[6] = tested on: T6, Rep nickase domain of maize striate mosaic virus
T6 sequence (residues 1-117, tag not shown): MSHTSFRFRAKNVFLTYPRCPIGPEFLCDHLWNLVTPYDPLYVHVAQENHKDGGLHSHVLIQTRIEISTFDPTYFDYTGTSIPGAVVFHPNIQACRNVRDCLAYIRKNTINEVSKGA
Description: as §1

[7] = tested on: T7, Rep nickase domain of porcine circovirus 2
T7 sequence (residues 2-116, tag not shown): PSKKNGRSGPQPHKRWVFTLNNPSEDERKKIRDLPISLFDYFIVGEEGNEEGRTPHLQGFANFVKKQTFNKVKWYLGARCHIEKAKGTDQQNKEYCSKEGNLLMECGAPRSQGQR
Description: as §1

[8] = tested on: T8, Rep nickase domain of tomato golden mosaic virus
T8 sequence (residues 1-124, tag not shown): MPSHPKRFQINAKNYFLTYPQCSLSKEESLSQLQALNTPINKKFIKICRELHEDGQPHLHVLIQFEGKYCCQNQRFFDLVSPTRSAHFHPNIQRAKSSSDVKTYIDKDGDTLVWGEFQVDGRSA
Description: as §1

[9] = tested on: T9, Rep nickase domain of tomato yellow leaf curl virus
T9 sequence (residues 1-136, tag not shown): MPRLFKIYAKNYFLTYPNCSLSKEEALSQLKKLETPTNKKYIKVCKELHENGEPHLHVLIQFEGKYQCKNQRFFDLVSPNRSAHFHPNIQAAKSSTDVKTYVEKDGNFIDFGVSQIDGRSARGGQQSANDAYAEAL
Description: as §1

[10] = tested on: T10, Rep nickase domain of wheat dwarf virus
T10 sequence (residues 1-137, tag not shown): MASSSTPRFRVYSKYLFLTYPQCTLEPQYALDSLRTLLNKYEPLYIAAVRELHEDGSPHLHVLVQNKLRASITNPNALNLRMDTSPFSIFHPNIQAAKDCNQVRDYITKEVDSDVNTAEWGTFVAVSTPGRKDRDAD
Description: as §1

Row | Sequence | uncleaved DNA left (log2) [1] | uncleaved DNA left (log2) [2] | uncleaved DNA left (log2) [3] | uncleaved DNA left (log2) [4] | uncleaved DNA left (log2) [5] | uncleaved DNA left (log2) [6] | uncleaved DNA left (log2) [7] | uncleaved DNA left (log2) [8] | uncleaved DNA left (log2) [9] | uncleaved DNA left (log2) [10]
1 | GAAGATT | 0.152 | 0.0687 | -0.337 | -1.41 | 0.264 | 1.43 | -0.25 | 0.0941 | 0.0221 | -0.0127
2 | CGCGGAG | -0.063 | 0.0316 | -0.562 | -0.351 | -0.0366 | -0.6 | 0.165 | 0.0168 | 0.00517 | -0.112
3 | ATGCCTT | -0.0531 | -0.11 | -0.133 | -1.77 | -0.0667 | -0.413 | -0.41 | -0.0477 | -0.0944 | -0.0385
4 | GTAAGCA | -0.0126 | 0.0579 | 0.114 | 0.0192 | -0.00386 | 0.451 | 0.0328 | 0.0252 | 0.105 | 0.00296
5 | GATCCGC | 0.183 | 0.0205 | 0.0228 | 0.103 | 0.0616 | -0.398 | 0.0515 | 0.0428 | 0.0377 | 0.162
6 | TAGTGGA | -0.00102 | 0.0175 | 0.0346 | -0.0912 | 0.0112 | -0.204 | -2.58 | -0.0499 | 0.0113 | -0.0843
7 | TATGGAA | 0.249 | 0.0891 | 0.414 | 0.963 | 0.192 | 1.09 | 0.193 | 0.184 | 0.0462 | 0.18
8 | TTCTTCT | -2.32 | -0.0247 | 0.0174 | -2.07 | 0.0926 | -0.527 | -2.83 | -0.0517 | 0.0789 | -0.000132
9 | AGGTCCC | 0.162 | -0.0408 | 0.221 | 0.599 | 0.0546 | 0.786 | 0.0886 | -0.028 | 0.19 | 0.199
10 | AGCTTGG | -0.0724 | 0.0363 | 0.126 | 0.998 | -0.0604 | 0.752 | -0.0459 | 0.0541 | -0.0398 | -0.0619
11 | CTCTCAC | 0.0797 | -0.0543 | 0.0383 | -0.379 | 0.135 | -0.588 | 0.0381 | -0.134 | -0.0159 | 0.102
12 | CGATGAA | 0.00469 | -0.0899 | 0.0308 | 0.365 | -0.0801 | 0.422 | -0.0287 | -0.0433 | -0.0714 | -0.0299
13 | ATGACAT | 0.0829 | 0.112 | 0.826 | 1.94 | -0.0814 | 2.13 | 0.193 | 0.0624 | 0.0951 | 0.224
14 | AATGAAG | 0.0705 | -0.074 | -0.792 | 0.123 | -0.0599 | -0.869 | 0.196 | 0.0359 | 0.0219 | -0.0889
15 | CTATATG | 0.116 | -0.0206 | -0.532 | -0.559 | -0.0218 | -1.17 | 0.0818 | -0.0365 | -0.0133 | 0.0335
16 | ATATGTG | 0.0776 | -0.0564 | -0.769 | -0.074 | -0.00417 | -1.03 | 0.0892 | -0.0581 | 0.0894 | -0.117
17 | GATACCC | 0.0227 | 0.0507 | 0.183 | 0.566 | 0.0154 | 0.493 | 0.0738 | 0.028 | 0.0713 | 0.108
18 | AGGTCGG | 0.0655 | 0.0492 | 0.328 | 0.896 | -0.0987 | 1.24 | 0.143 | 0.125 | -0.144 | -0.0281
19 | GATCTTG | 0.0883 | 0.0768 | -0.113 | -0.508 | 0.0507 | -0.363 | 0.104 | 0.0316 | 0.0993 | 0.1
20 | AAATCTG | 0.0973 | 0.00692 | 0.0344 | 0.687 | 0.0801 | 0.948 | 0.113 | 0.111 | -0.0623 | 0.107
21 | TAAATCT | -0.199 | -0.195 | -4.38 | -3.46 | 0.011 | -3.21 | -2.02 | -3.8 | 0.0156 | -4.11
22 | CACCCAT | -0.176 | -0.248 | -0.594 | -2.34 | -0.187 | -1.2 | -0.832 | -0.233 | -0.15 | -0.0641
23 | AGCGTCC | 0.0529 | -0.007 | 0.132 | 0.373 | -0.0805 | 0.663 | 0.0387 | 0.0866 | 0.149 | 0.116
24 | ATATTTG | 0.0492 | -0.0374 | -0.74 | -0.669 | 0.0847 | -1.24 | 0.0351 | -0.137 | -0.067 | -0.0637
25 | CCAGAAA | -0.0227 | 0.0702 | 0.0197 | -0.0469 | 0.0103 | -0.5 | 0.0871 | 0.141 | 0.0708 | 0.102
26 | TGTGAAA | 0.0399 | 0.0639 | 0.211 | 0.728 | 0.0327 | 0.992 | 0.169 | 0.0649 | 0.0175 | 0.0524
27 | GTAGATG | 0.136 | 0.00111 | 0.228 | 0.755 | -0.0155 | 0.94 | 0.0444 | 0.0271 | -0.0903 | -0.0538
28 | TTGCTAC | -0.403 | 0.0692 | -0.368 | -1.45 | 0.0859 | -1.01 | -0.445 | -0.0311 | 0.0275 | -0.0317
29 | GAAGTAT | 0.0658 | 0.129 | 0.234 | 0.311 | 0.0994 | 1.38 | 0.056 | 0.096 | 0.0201 | 0.174
30 | ATCAAAG | 0.052 | 0.0382 | -0.791 | -0.21 | 0.0285 | -1.16 | 0.407 | 0.0242 | 0.118 | 0.00679
